The target in test [1] is NKG2D ligand. Briefly: BLI (Octet); conditions and ligand not stated. In general terms: In BLI a coated tip is dipped into the sample, and binding shifts an interference pattern.
Test [2] addresses T1, CD19 (UniProt P15391 20-291, limits assumed).
T1 sequence (looked up): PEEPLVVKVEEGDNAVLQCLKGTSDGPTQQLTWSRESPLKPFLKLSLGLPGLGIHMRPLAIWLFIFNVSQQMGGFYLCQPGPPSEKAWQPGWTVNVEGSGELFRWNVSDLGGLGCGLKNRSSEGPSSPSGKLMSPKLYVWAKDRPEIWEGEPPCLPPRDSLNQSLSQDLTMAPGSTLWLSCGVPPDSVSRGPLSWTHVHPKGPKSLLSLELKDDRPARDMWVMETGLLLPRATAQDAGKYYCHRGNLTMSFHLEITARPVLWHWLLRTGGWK
Description: BLI (Octet); conditions not stated.

Test [3] has as its target T2, human CD3 (human, UniProt P07766 23-126; P04234 22-105).
T2 construct: also called His-tagged human CD3; human CD3 (Acro CDD-H52W1)
Description: BLI (Octet); conditions not stated.

Test [4] deals with T3, human HER3 (human, UniProt P21860 part only).
T3 construct: Soluble antigen in Octet; bought; also called human HER3 (Acro ER3-H5223)
Description: BLI (Octet), binder on AHC sensor, 200 nM human HER3, 1:1 fit.

Test [5] addresses T2, human CD3. Description: BLI (Octet), binder on AHC sensor, 100 nM human CD3, 1:1 fit.
The target in test [6] is T4, human EGFR (human, UniProt P00533 part only, limits assumed).
T4 construct: Soluble antigen in Octet; construct not described
Briefly: BLI (Octet), binder on AHC sensor, 200 nM human EGFR, 1:1 fit.

In test [7] the target is T5, human 4-1BB (human, UniProt Q07011 24-186, limits assumed).
T5 construct: Soluble antigen in Octet; construct not described
Description: BLI (Octet), binder on AHC sensor, 400 nM human 4-1BB, 1:1 fit.

By Kd is commonly meant the concentration at which binding is half-saturated.

T2 sequence (P07766 23-126, chain 1 of 2): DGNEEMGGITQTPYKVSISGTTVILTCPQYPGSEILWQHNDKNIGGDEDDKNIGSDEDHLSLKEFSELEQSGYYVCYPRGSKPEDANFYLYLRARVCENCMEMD
T2 sequence (P04234 22-105, chain 2 of 2, further chain): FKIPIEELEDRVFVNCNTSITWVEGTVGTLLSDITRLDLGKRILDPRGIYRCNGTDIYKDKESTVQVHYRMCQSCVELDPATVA
Chain of human 4-1BB (Q07011 24-186 limits assumed): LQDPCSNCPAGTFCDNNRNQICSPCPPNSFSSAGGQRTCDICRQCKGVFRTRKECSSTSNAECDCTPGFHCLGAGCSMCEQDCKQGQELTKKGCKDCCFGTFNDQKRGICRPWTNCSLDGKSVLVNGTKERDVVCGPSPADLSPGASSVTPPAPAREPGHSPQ

B1: SI-49R25 (other)
chain 1: EIVMTQSPSTLSASVGDRVIITCQASESISSWLAWYQQKPGKAPKLLIYEASKLASGVPSRFSGSGSGAEFTLTISSLQPDDFATYYCQGYFYFISRTYVNSFGCGTKLTVLGSTGSGSKPGSGEGSTKGEVQLVESGGGLVQPGGSLRLSCTASGFTISTNAMSWVRQAPGKCLEWVGVITGRDITYYASWAKGRFTISRDTSKNTVYLQMNSLRAEDTAVYYCARDGGSSAITSNNIWGQGTLVTVSTGGGGSGGGGSFLNSLFNQEVQIPLTESYCGPCPKNWICYKNNCYQFFDESKNWYESQASCMSQNASLLKVYSKEDQDLLKLVKSYHWMGLVHIPTNGSWQWEDGSILSPNLLTIIEMQKGDCALYASSFKGYIENCSTPNTYICMQRTVASTKGPSVFPLAPSSKSTSGGTAALGCLVKDYFPEPVTVSWNSGALTSGVHTFPAVLQSSGLYSLSSVVTVPSSSLGTQTYICNVNHKPSNTKVDKRVEPKSCDKTHTCPPCPAPEAAGGPSVFLFPPKPKDTLMISRTPEVTCVVVDVSHEDPEVKFNWYVDGVEVHNAKTKPREEQYASTYRVVSVLTVLHQDWLNGKEYKCAVSNKALPAPIEKTISKAKGQPREPQVCTLPPSRDELTKNQVSLSCAVKGFYPSDIAVEWESNGQPENNYKTTPPVLDSDGSFFLVSKLTVDKSRWQQGNVFSCSVMHEALHNHYTQKSLSLSPG
chain 2: ENVLTQSPASLSASPGERVTITCSASSSVSYMHWYQQKPGQAPKLWIYDTSKLASGVPSRFSGSGSGNDHTLTISSMEPEDFATYYCFQGSVYPFTFGQGTKLEIKGSTGSGSKPGSGEGSTKGQVTLKESGPGLVQPGQTLRLTCAFSGFSLSTSGMGVGWIRQPPGKGLEWLAHIWWDDDKRYNPALKSRLTISKDTSKNQVYLQMNSLDAEDTAVYYCARMELWSYYFDYWGQGTLVTVSTGGGGSGGGGSFLNSLFNQEVQIPLTESYCGPCPKNWICYKNNCYQFFDESKNWYESQASCMSQNASLLKVYSKEDQDLLKLVKSYHWMGLVHIPTNGSWQWEDGSILSPNLLTIIEMQKGDCALYASSFKGYIENCSTPNTYICMQRTVRTVAAPSVFIFPPSDEQLKSGTASVVCLLNNFYPREAKVQWKVDNALQSGNSQESVTEQDSKDSTYSLSSTLTLSKADYEKHKVYACEVTHQGLSSPVTKSFNRGECGG[human IgG1 Fc with L234A L235A N297A K322A S354C T366W (EU numbers) cut from this listing]
notes: tri-miniGNC; D1 αCD3, D2 αCD19, D3 NKG2D receptor dimer
B1: the dissociation constant Kd in test [1] stood at 12.8 nM; in test [2], 7.62 nM; in test [3] it was 34.5 nM.

B2: SI-68X2 (other)
chain 1: DIQMTQSPSSLSASVGDRVTITCQASQDISNYLNWYQQKPGKAPKLLIYDASNLETGVPSRFSGSGSGTDFTFTISSLQPEDIATYFCQHFDHLPLAFGCGTKVEIKGGGGSGGGGSGGGGSGGGGSQVQLQESGPGLVKPSETLSLTCTVSGGSVSSGDYYWTWIRQSPGKCLEWIGHIYYSGNTNYNPSLKSRLTISIDTSKTQFSLKLSSVTAADTAIYYCVRDRVTGAFDIWGQGTMVTVSTGGGGSGGGGSEVQLVESGGGLVQPGGSLRLSCAASGFTISTNAMSWVRQAPGKGLEWIGVITGRDITYYASWAKGRFTISRDNSKNTLYLQMNSLRAEDTAVYYCARDGGSSAITSNNIWGQGTLVTVSSASTKGPSVFPLAPSSKSTSGGTAALGCLVKDYFPEPVTVSWNSGALTSGVHTFPAVLQSSGLYSLSSVVTVPSSSLGTQTYICNVNHKPSNTKVDKRVEPKSCDKTHTCPPCPAPEAAGGPSVFLFPPKPKDTLMISRTPEVTCVVVDVSHEDPEVKFNWYVDGVEVHNAKTKPREEQYASTYRVVSVLTVLHQDWLNGKEYKCAVSNKALPAPIEKTISKAKGQPREPQVCTLPPSRDELTKNQVSLSCAVKGFYPSDIAVEWESNGQPENNYKTTPPVLDSDGSFFLVSKLTVDKSRWQQGNVFSCSVMHEALHNHYTQKSLSLSPGK
chain 2: QSALTQPASVSGSPGQSITISCTGTSSDVGGYNFVSWYQQHPGKAPKLMIYDVSDRPSGVSDRFSGSKSGNTASLIISGLQADDEADYYCSSYGSSSTHVIFGCGTKVTVLGGGGSGGGGSGGGGSGGGGSQVQLQESGGGLVKPGGSLRLSCAASGFTFSSYWMSWVRQAPGKCLEWVANINRDGSASYYVDSVKGRFTISRDDAKNSLYLQMNSLRAEDTAVYYCARDRGVGYFDLWGRGTLVTVSTGGGGSGGGGSDVVMTQSPSTLSASVGDRVTINCQASESISSWLAWYQQKPGKAPKLLIYEASKLASGVPSRFSGSGSGTEFTLTISSLQPDDFATYYCQGYFYFISRTYVNSFGGGTKVEIKRTVAAPSVFIFPPSDEQLKSGTASVVCLLNNFYPREAKVQWKVDNALQSGNSQESVTEQDSKDSTYSLSSTLTLSKADYEKHKVYACEVTHQGLSSPVTKSFNRGECGG[human IgG1 Fc with L234A L235A N297A K322A S354C T366W (EU numbers) cut from this listing]
notes: tri-miniGNC, all scFv stapled; D1 αEGFR*, D2 αHER3, D3 αCD3 (Fab); also called tri-miniGNC (SI-68X2)
For the molecule B2, the Kd is 114 nM in test [4], 24.3 nM in test [5] and less than 0.001 nM in test [6].

B3: SI-68E1 (other)
chain 1: DIQMTQSPSSLSASVGDRVTITCQASQDISNYLNWYQQKPGKAPKLLIYDASNLETGVPSRFSGSGSGTDFTFTISSLQPEDIATYFCQHFDHLPLAFGCGTKVEIKGGGGSGGGGSGGGGSGGGGSQVQLQESGPGLVKPSETLSLTCTVSGGSVSSGDYYWTWIRQSPGKCLEWIGHIYYSGNTNYNPSLKSRLTISIDTSKTQFSLKLSSVTAADTAIYYCVRDRVTGAFDIWGQGTMVTVSTGGGGSGGGGSEVQLVESGGGLVQPGGSLRLSCAASGFTISTNAMSWVRQAPGKGLEWIGVITGRDITYYASWAKGRFTISRDNSKNTLYLQMNSLRAEDTAVYYCARDGGSSAITSNNIWGQGTLVTVSSASTKGPSVFPLAPSSKSTSGGTAALGCLVKDYFPEPVTVSWNSGALTSGVHTFPAVLQSSGLYSLSSVVTVPSSSLGTQTYICNVNHKPSNTKVDKRVEPKSCDKTHTCPPCPAPEAAGGPSVFLFPPKPKDTLMISRTPEVTCVVVDVSHEDPEVKFNWYVDGVEVHNAKTKPREEQYASTYRVVSVLTVLHQDWLNGKEYKCAVSNKALPAPIEKTISKAKGQPREPQVCTLPPSRDELTKNQVSLSCAVKGFYPSDIAVEWESNGQPENNYKTTPPVLDSDGSFFLVSKLTVDKSRWQQGNVFSCSVMHEALHNHYTQKSLSLSPGGGGGSGGGGSRSLVESGGGLVQPGGSLRLSCTASGFTISSYHMQWVRQAPGKCLEYIGTISSGGNVYYASSARGRFTISRPSSKNTVDLQMNSLRAEDTAVYYCARDSGYSDPMWGQGTLVTVSSGGGGSGGGGSGGGGSGGGGSDVVMTQSPSSVSASVGDRVTITCQASQNIRTYLSWYQQKPGKAPKLLIYAAANLASGVPSRFSGSGSGTDFTLTISDLEPGDAATYYCQSTYLGTDYVGGAFGCGTKVEIK
chain 2: QSALTQPASVSGSPGQSITISCTGTSSDVGGYNFVSWYQQHPGKAPKLMIYDVSDRPSGVSDRFSGSKSGNTASLIISGLQADDEADYYCSSYGSSSTHVIFGCGTKVTVLGGGGSGGGGSGGGGSGGGGSQVQLQESGGGLVKPGGSLRLSCAASGFTFSSYWMSWVRQAPGKCLEWVANINRDGSASYYVDSVKGRFTISRDDAKNSLYLQMNSLRAEDTAVYYCARDRGVGYFDLWGRGTLVTVSTGGGGSGGGGSDVVMTQSPSTLSASVGDRVTINCQASESISSWLAWYQQKPGKAPKLLIYEASKLASGVPSRFSGSGSGTEFTLTISSLQPDDFATYYCQGYFYFISRTYVNSFGGGTKVEIKRTVAAPSVFIFPPSDEQLKSGTASVVCLLNNFYPREAKVQWKVDNALQSGNSQESVTEQDSKDSTYSLSSTLTLSKADYEKHKVYACEVTHQGLSSPVTKSFNRGECGG[human IgG1 Fc with L234A L235A N297A K322A S354C T366W (EU numbers) cut from this listing]
notes: tetra-miniGNC, all scFv stapled; D1 αEGFR*, D2 αHER3, D3 αCD3 (Fab), D4 α4-1BB
Take B3: the Kd in test [4] is 139 nM; in test [5] it was 26.2 nM; in test [7], 12.7 nM; in test [6], less than 0.001 nM.

The values above are taken from patent US20230114801A1 (SYSTIMMUNE, published 2023).
